Results on 23 compounds are retold here after PubChem BioAssay AID2202238 (Ras Initiative Chemistry Research Team, Frederick National …, 2025).

The list shows a part of the results. Further columns of the screen follow, without active or inactive calls.

This experiment has as its target GTPase KRas (Homo sapiens) (UniProt P01116). Put plainly: Covalent labelling of cysteine mutants by fragments, read by mass spectrometry (AID 2202238). More on the design: protein at 5 µM with 500 µM competing thiol for 1.5 h. The following applies: KRAS G12D cysteine mutants, disulfide tethering, MALDI-TOF labeling, stronger effect = higher value, fragment at 500 µM.
Where [1] appears, read: measured here: G60C mutant labeling.
Where [2] appears, read: measured here: G75C mutant labeling.
Where [3] appears, read: measured here: H94C mutant labeling.
Where [4] appears, read: measured here: I36C mutant labeling.
The mark [5] stands for this setting: measured here: L120C mutant labeling.
[6] abbreviates: measured here: M67C mutant labeling.
Where [7] appears, read: measured here: M72C mutant labeling.
[8] abbreviates: measured here: N26C mutant labeling.
Setting [9] is: measured here: N86C mutant labeling.
[10] abbreviates: measured here: P121C mutant labeling.
The mark [11] stands for this setting: measured here: S122C mutant labeling.
Setting [12] is: measured here: S136C mutant labeling.

Sequence of UniProt P01116 (P01116 whole entry, looked up, the tested form may be a part): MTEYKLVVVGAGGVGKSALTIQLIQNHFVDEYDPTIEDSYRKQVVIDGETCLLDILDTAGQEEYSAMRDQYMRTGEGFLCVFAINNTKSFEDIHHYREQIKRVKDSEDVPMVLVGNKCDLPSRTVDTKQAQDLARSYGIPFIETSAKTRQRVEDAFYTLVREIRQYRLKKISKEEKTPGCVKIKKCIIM

In the case of `O=C(Cn1c(=O)[nH]c2ccccc2c1=O)NCCS`, the percent labeling is, setting by setting: under setting [1], 33.9%; under setting [2], 14.1%; under setting [3], 23.8%; under setting [4], 26.3%; under setting [5], 52.2%; under setting [6], 33%. The percent labeling reads like this: under setting [7], 55.4%; under setting [8], 39.8%; under setting [9], 27.4%; under setting [10], 24.9%; under setting [11], 26.1%; under setting [12], 35.6%.
As for `O=C(CCOc1cccc(Cl)c1Cl)NCCS`, the percent labeling is, setting by setting: under setting [1], 45%; under setting [2], 40.6%; under setting [3], 31.9%; under setting [4], 12.9%; under setting [5], 36.9%; under setting [6], 37.3%. The percent labeling reads like this: under setting [7], 55.2%; under setting [8], 35.3%; under setting [9], 21%; under setting [10], 26.5%; under setting [11], 15.1%; under setting [12], 26.3%.
With `O=C(Cn1cnc2c(oc3ccccc32)c1=O)NCCS`, the percent labeling was found to be 24.2% under setting [1]; 7.2% under setting [2]; 13% under setting [3]; 15.6% under setting [4]; 47% under setting [5]; 40.1% under setting [6]. Also, the percent labeling runs as follows: under setting [7], 20.5%; under setting [8], 24.9%; under setting [9], 13.7%; under setting [10], 22%; under setting [11], 10.2%; under setting [12], 17.1%.
On to `CCc1c(C(=O)NCCS)nnn1Cc1ccccc1`, for which the percent labeling by setting is: under setting [1], 26.5%; under setting [2], 15.2%; under setting [3], 19.4%; under setting [4], 13.6%; under setting [5], 24.3%; under setting [6], 30.5%. The percent labeling stood at 47.4% under setting [7]; 31.6% under setting [8]; 16.7% under setting [9]; 17.5% under setting [10]; 16.6% under setting [11]; 27.7% under setting [12].
Regarding `Cn1c(=O)[nH]c2ncc(-c3cccc(C(=O)NCCS)c3)cc21`, the percent labeling by setting is: under setting [1], 14.7%; under setting [2], 4.5%; under setting [3], 8%; under setting [4], 6.5%; under setting [5], 5.7%; under setting [6], 7.7%. Besides, the percent labeling reads like this: under setting [7], 36.6%; under setting [8], 40.8%; under setting [9], 6%; under setting [10], 5.9%; under setting [11], 3.4%; under setting [12], 10.5%.
With `Cc1nn(CC(F)F)c(C)c1NC(=O)CCS`, the percent labeling was 8.8% under setting [2]; 36.1% under setting [3]; 35.4% under setting [4]; 30.1% under setting [5]; 36.5% under setting [6]; 17.3% under setting [7]. In addition, the percent labeling by setting is: under setting [9], 35.6%; under setting [10], 34.5%; under setting [11], 36.4%; under setting [12], 53.6%.
For `N#Cc1ccc(N2CCCC2C(=O)NCCS)cc1` (centres undefined), the percent labeling by setting is: under setting [1], 26.9%; under setting [2], 11%; under setting [3], 23%; under setting [4], 20.4%; under setting [5], 22.8%; under setting [6], 28.8%. In addition, the percent labeling came out at 12.7% under setting [7]; 21.2% under setting [8]; 14.7% under setting [9]; 19.4% under setting [10]; 16.6% under setting [11]; 22.4% under setting [12].
On to `Cc1nc(-c2ccc(C(=O)NCCS)cc2)n[nH]1`, for which the percent labeling is, setting by setting: under setting [1], 31.9%; under setting [2], 20.5%; under setting [3], 26.6%; under setting [4], 19.4%; under setting [5], 30.5%; under setting [6], 24.5%. In addition, the percent labeling was determined as 47.9% under setting [7]; 46.9% under setting [8]; 35.3% under setting [9]; 21.5% under setting [10]; 23.6% under setting [11]; 36.7% under setting [12].
Consider `O=C(CCS)N1CCN(C(=O)c2cc(Cl)c[nH]2)CC1`, for which the percent labeling is, setting by setting: under setting [2], 17.2%; under setting [3], 32.6%; under setting [4], 46.6%; under setting [5], 40.1%; under setting [6], 38.7%; under setting [7], 27.5%. Also, the percent labeling was determined as 21.4% under setting [9], 40.1% under setting [10], 33.3% under setting [11] and 57.9% under setting [12].
Turning to `Cc1cc(-c2cc(C(=O)NCCS)c3c(C)noc3n2)c(C)o1`, the percent labeling under setting [1] is 20.6%; the percent labeling under setting [2] stood at 12.4%; the percent labeling under setting [3] came to 10.9%; the percent labeling under setting [4] is 3.9%; the percent labeling under setting [5] stood at 3.8%; the percent labeling under setting [6] was determined as 2.7%. The percent labeling is 2.8% under setting [7]; 11.2% under setting [8]; 0% under setting [9]; 8.4% under setting [10]; 2.8% under setting [11]; 7.8% under setting [12].
Regarding `Cc1cc(C(=O)NCCS)c(C)n1Cc1ccccc1`, the percent labeling runs as follows: under setting [1], 17%; under setting [2], 3.3%; under setting [3], 11.7%; under setting [4], 9.7%; under setting [5], 15.9%; under setting [6], 9.9%. In addition, the percent labeling came out at 9% under setting [7]; 10.7% under setting [8]; 6.1% under setting [9]; 10.5% under setting [10]; 10.3% under setting [11]; 18% under setting [12].
Regarding `Cc1nnnn1-c1ccc(C(=O)NCCS)c(F)c1`, the percent labeling was 31.7% under setting [1]; 22.5% under setting [2]; 33.3% under setting [3]; 29.6% under setting [4]; 36.8% under setting [5]; 37.7% under setting [6]. For the same compound, the percent labeling under setting [7] was 43.7%; the percent labeling under setting [8] is 43.7%; the percent labeling under setting [9] amounted to 31.3%; the percent labeling under setting [10] amounted to 38.3%; the percent labeling under setting [11] was 33.2%; the percent labeling under setting [12] worked out at 44.2%.
Take `Cc1noc2nc(C(C)C)cc(C(=O)NCCS)c12`: the percent labeling reads like this: under setting [1], 46.2%; under setting [2], 13.6%; under setting [3], 25.8%; under setting [4], 18.8%; under setting [5], 22.6%; under setting [6], 21.7%. Moreover, the percent labeling by setting is: under setting [7], 26.3%; under setting [8], 33.9%; under setting [9], 17.3%; under setting [10], 19.8%; under setting [11], 17%; under setting [12], 58.7%.
`Cc1c(CNC(=O)CCS)oc2ccc(Cl)cc12`: the percent labeling was found to be 13.7% under setting [2]; 33.8% under setting [3]; 22.9% under setting [4]; 27.3% under setting [5]; 25.2% under setting [6]; 36.3% under setting [7]. In addition, the percent labeling came out at 16.6% under setting [9], 23.8% under setting [10], 15.2% under setting [11] and 38% under setting [12].
`O=C(NCCS)C1(C2CCCCC2)CCCCC1` gave a percent labeling under setting [1] of 32.5%; a percent labeling under setting [2] of 17.2%; a percent labeling under setting [3] of 13.7%; a percent labeling under setting [4] of 6.4%; a percent labeling under setting [5] of 18.5%; a percent labeling under setting [6] of 9.5%. Moreover, the percent labeling was 28.7% under setting [7]; 22.7% under setting [8]; 14.4% under setting [9]; 14.2% under setting [10]; 7.9% under setting [11]; 19.4% under setting [12].
In the case of `O=C(NCCS)c1cc(=O)[nH]c2cc(F)ccc12`, the percent labeling is, setting by setting: under setting [1], 14.3%; under setting [2], 8%; under setting [3], 8.2%; under setting [4], 6.4%; under setting [5], 10%; under setting [6], 18.5%. Besides, the percent labeling reads like this: under setting [7], 32.7%; under setting [8], 31.3%; under setting [9], 10.2%; under setting [10], 8.7%; under setting [11], 8.1%; under setting [12], 11.3%.
Turning to `NC(=O)N1CCc2ccc(NC(=O)CCS)cc21`, the percent labeling came to 8.9% under setting [2]; 12.1% under setting [3]; 18.6% under setting [4]; 23.4% under setting [5]; 16.6% under setting [6]; 31.7% under setting [7]. For the same compound, the percent labeling reads like this: under setting [9], 15.6%; under setting [10], 18.2%; under setting [11], 19.5%; under setting [12], 36.6%.
`O=C(NCCS)c1nc2c(Br)cccn2n1`: the percent labeling under setting [1] was found to be 44.7%; the percent labeling under setting [2] is 72.1%; the percent labeling under setting [3] came out at 42.8%; the percent labeling under setting [4] was determined as 31%; the percent labeling under setting [5] was 65.2%; the percent labeling under setting [6] stood at 38.6%. This compound also came in with a percent labeling under setting [7] of 73.8%; a percent labeling under setting [8] of 45.8%; a percent labeling under setting [9] of 30.2%; a percent labeling under setting [10] of 38.3%; a percent labeling under setting [11] of 31.3%; a percent labeling under setting [12] of 52.3%.
For the compound `Cc1cnc(C2(NC(=O)CCS)CCOCC2)[nH]1`, the percent labeling is, setting by setting: under setting [2], 7.4%; under setting [3], 26.4%; under setting [4], 39.9%; under setting [5], 20.5%; under setting [6], 34.4%; under setting [7], 9.7%. For the same compound, the percent labeling worked out at 22.7% under setting [9], 28.1% under setting [10], 25.8% under setting [11] and 45.3% under setting [12].
As to `O=C(NCCS)c1cccc(-c2ccccc2)n1`, the percent labeling reads like this: under setting [1], 17.6%; under setting [2], 23.1%; under setting [3], 13.4%; under setting [4], 7.4%; under setting [5], 12.4%; under setting [6], 9.6%. Besides, the percent labeling by setting is: under setting [7], 36.1%; under setting [8], 28.1%; under setting [9], 7%; under setting [10], 11.8%; under setting [11], 7%; under setting [12], 22.3%.
Take `COC1CCn2cc(C(=O)NCCS)nc2C1` (centres undefined): the percent labeling stood at 17.9% under setting [1]; 13.5% under setting [2]; 25.5% under setting [3]; 19.1% under setting [4]; 45.7% under setting [5]; 28.2% under setting [6]. Further, the percent labeling under setting [7] is 25%; the percent labeling under setting [8] came to 35.2%; the percent labeling under setting [9] came to 22%; the percent labeling under setting [10] came out at 26.1%; the percent labeling under setting [11] came to 25.7%; the percent labeling under setting [12] was found to be 44.2%.
The compound `O=C(NCCS)c1ccn(-c2cccc(F)c2)n1` returned a percent labeling under setting [1] of 18.4%; a percent labeling under setting [2] of 19.7%; a percent labeling under setting [3] of 19.5%; a percent labeling under setting [4] of 11.6%; a percent labeling under setting [5] of 26.1%; a percent labeling under setting [6] of 10.2%. The percent labeling runs as follows: under setting [7], 54%; under setting [8], 29.4%; under setting [9], 9.7%; under setting [10], 17.2%; under setting [11], 10.3%; under setting [12], 26.6%.
Regarding `CC(C)N(CC(=O)N1CCCCCC1)C(=O)CCS`, the percent labeling was found to be 9.7% under setting [2]; 36.7% under setting [3]; 29.3% under setting [4]; 35.9% under setting [5]; 31.8% under setting [6]; 21.1% under setting [7]. The percent labeling runs as follows: under setting [9], 20.6%; under setting [10], 32.4%; under setting [11], 37.7%; under setting [12], 56.4%.
